# Results published in PubChem BioAssay AID1347073 (National Center for Advancing Translational Sciences (NCATS), 2019).
# Screen size: about 45,000 compounds; about 200 (0.44%) were called active. Inconclusive results (about 7%) are left out. The call rests on the fitted dose curve; in most records, active means well fitted activation curve with a large enough effect; inconclusive means small, poorly fitted or top-dose-only effect; inactive means no such curve, though single readings can be large or run the other way. The list shows a part of the results.
# Assay: qHTS of TDP-43 Inhibitors: NCGC Sytravon Library Screen; further: 0% is about no effect; nearly all actives have a fitted effect of over 55% in size
# Conditions: yeast TDP-43 toxicity rescue, BacTiter-Glo growth, 24 h; series mostly up to 46.1 µM; growth rescue (activation): at the top concentration
# In short: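 TDP-43-expressing yeast, pregrown in raffinose, seeded at OD600 0.02 in galactose medium with compound for 24 hr at 30 deg C. Growth read by BacTiter-Glo luminescence, so rescue of toxicity appears as activation.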
row,Compound,growth rescue (activation)
1,O=S(=O)(Nc1cccc(Cl)c1)c1cccc(-n2cnnn2)c1,inactive: 6.06%
2,Cc1ccc(F)cc1-c1cc2nc(NCCCN(C)C)n(C)c(=O)c2s1,inactive: 4.14%
3,COc1ccc(C(=O)O)cc1S(=O)(=O)NCCN(C)C,inactive: 17.8%
4,CC(C)(C)C(=O)Nc1nnc(SCC(=O)NC2CCCC2)s1,inactive: 15.6%
5,COc1ccc(CNC(=O)COC(=O)CC2CCCC2)cc1,inactive: 19%
6,Cc1cc(C(C)(C)C)n2nc(C)c(-c3ccccc3)c2n1,inactive: -21%
7,CSc1ccc(C2c3[nH]c4ccccc4c3CCN2C(=O)c2ccnn2C)cc1 (stereo not given),inactive: -3.47%
8,O=C(COc1ccc(C(=O)O)cc1)Nc1cccc(C(F)(F)F)c1,inactive: 0.864%
9,Oc1c(N=NC(=S)Nc2ccccc2F)c2ccccc2n1Cc1ccc(Cl)cc1,inactive: 21%
10,CC(=O)NC(c1ccc(F)c(F)c1)c1nc(-c2ccc(F)c(Cl)c2)cs1 (stereo not given),inactive: 10.9%
11,COc1cc(NC2c3ncccc3C(=O)N2Cc2ccco2)cc(OC)c1OC (stereo not given),inactive: -9.55%
12,COc1ccc(CC2(CO)CCN(Cc3cccn3-c3ccccn3)CC2)cc1,inactive: -9.33%
13,Cc1ccccc1NC(=O)NCCc1c[nH]c2ccccc12,inactive: 3.85%
14,CCN1CCN(c2c(/C=C3\SC(=S)N(Cc4ccco4)C3=O)c(C)c(C#N)c(=O)n2C)CC1,inactive: 3.05%
15,CC(=O)NC(c1cccc(F)c1)c1nc(-c2cccc(C(F)(F)F)c2)cs1 (stereo not given),inactive: 12.7%
16,C/C(N)=C(/C#N)C(=O)CSc1nnc(Nc2cccc(C)c2)s1,inactive: -8.5%
17,COc1ccc(Cc2noc(CN3CCCN(C4Cc5ccccc5C4)CC3)n2)cc1OC,inactive: 1.83%
18,COc1ccc(CC(=O)NNc2ncnc3c2cnn3C)cc1OC,inactive: 8.63%
19,Cc1nc(SCC(=O)N2CCN(c3ccccc3)CC2)[nH]c(=O)c1C,inactive: -1.32%
20,Clc1nc2ccccc2cc1/C=N/Nc1nc2ccccc2[nH]1,inactive: 8.53%
21,CC(=O)N(C)N1c2ccccc2CCc2ccccc21,inactive: 9.22%
22,CCc1oc(C(=O)OC)cc1CSC(=N)N,inactive: -6.79%

row,Compound,growth rescue (activation)
1,Cc1ccc(NC(=O)CCn2c(=S)oc3ccccc32)cc1,inactive: 9.97%
2,CCOC(=O)/C=C1/SCC(=O)N1CC(=O)Nc1ccccc1OC(F)F,inactive: 6.43%
3,Cc1nc(C)c(C(=O)N2CCCC(CCC(=O)NCc3ccc(F)c(F)c3)C2)s1 (stereo not given),inactive: 11.4%
4,CSc1nnc2c(n1)OC1(Nc3ccccc3-2)C(=O)Nc2ccccc21 (stereo not given),inactive: -0.749%
5,Cc1cccc(OCC(=O)NC(Cc2c[nH]c3ccccc23)C(=O)O)c1C (stereo not given),inactive: -1.6%
6,CCC(=O)Nc1ccc(C(=O)NNC(=O)Cc2ccccc2)cc1,inactive: -4.24%
7,Cc1ccc(C)c(OCCC(=O)Nc2ccccc2C(=O)NC2CC2)c1,inactive: 3.8%
8,Cc1cc(NC(=O)COC(=O)c2c(C)noc2C)ccc1Br,inactive: 7.68%
9,Cc1nc2sc3c(c2c(=O)n1NC(=O)CCl)CCCC3,inactive: 2.06%
10,Cc1nn2c(NCc3cccnc3)c3c(nc2c1-c1ccccc1)CCC3,inactive: 9.14%
11,N#Cc1ccc(OCC(=O)NCCCn2ccnc2)cc1,inactive: -7.6%
12,CC(=O)c1sc(NC(=O)c2cccc3ccccc23)nc1C,inactive: 9.85%
13,O=C1c2ccccc2C(=O)N1CCc1c[nH]c2ccccc12,inactive: 4.92%
14,CC1CN(C(=S)SCCN2C(=O)CCC2=O)CC(C)O1 (stereo not given),inactive: 2.53%
15,O=C(COc1ccc(Cl)cc1)NC1CCSC1=O (stereo not given),inactive: 25.9%
16,COc1ccc(/C=C/C(=O)NCCN=C2NS(=O)(=O)c3ccccc32)cc1,inactive: -2.65%
17,COCCN(C(=O)CN1CCN(S(=O)(=O)c2ccc(F)cc2)CC1)c1c(N)n(Cc2ccccc2)c(=O)[nH]c1=O,inactive: -0.874%
18,CCC(C)C(=O)Nc1nnc(SCC(=O)NC2CCCCC2)s1 (stereo not given),inactive: -9.35%
19,CC1Cn2c(nc(=O)c3c2NCN(CCc2ccccc2)C3)S1 (stereo not given),inactive: -0.423%
20,CCOc1ccc(OCC(=O)Nc2cccc(S(=O)(=O)NC3=NCCC3)c2)cc1,inactive: 2.41%
21,COc1ccccc1/C=C/C(=O)OCC(=O)NC1CCCCCC1,inactive: 14.2%
22,CCOc1ccc(-c2nc(C#N)c(NCc3ccco3)o2)cc1,inactive: -1.31%

row,Compound,growth rescue (activation)
1,CCOc1ccc(S(=O)(=O)N2CCCC(C(=O)N3CCOCC3)C2)cc1Cl (stereo not given),inactive: 4.72%
2,CCCOc1ccc(N/C=C/C(=O)c2ccc(OC)c(OC)c2)cc1,inactive: 16.4%
3,O=C1CC(c2ccccc2F)c2c(c3ccccc3[nH]c2=O)O1 (stereo not given),inactive: -13.1%
4,CCOC(=O)CCNC(=O)N1CCCC(CNS(=O)(=O)c2cccs2)C1 (stereo not given),inactive: -12.8%
5,Cc1cc[n+](-c2[nH]c(=O)sc2/C=N/NC(=O)c2ccccc2[O-])cc1C,inactive: 17.9%
6,N#CCCN(C(=O)COc1ccc(Br)cc1F)c1ccc(F)cc1,inactive: 14.5%
7,O=C(N[C@H](Cc1cc(=O)[nH]c2ccccc12)C(=O)O)c1ccc(Cl)cc1,inactive: -40.2%
8,O=C(c1cc2cc(F)ccc2[nH]1)N1CCC(Cc2ccccc2)CC1,inactive: 15.4%
9,Cc1cc(C)c2nc(SCC(=O)NNC(=O)c3ccco3)c(C)cc2c1,inactive: 9.65%
10,O=C(C1=C(O)C(=O)N(Cc2ccco2)C1c1cccnc1)c1cc2ccccc2o1 (stereo not given),inactive: -26.4%
11,CCOC(=O)c1c(NC(=O)CN2C(=O)CN(C)C2=O)sc(C)c1C,inactive: -5.25%
12,Cc1c(C(=O)NC(C)c2ccccn2)oc2c(Cl)cccc12 (stereo not given),inactive: 11.8%
13,CC(=O)Nc1ccc(/C=N/OCC(=O)Nc2ccc(C)cc2)cc1,inactive: -15.8%
14,O=C(COC(=O)c1cccnc1Cl)Nc1ccc2c(c1)OCCO2,inactive: 17.6%
15,Cc1c(O)ccc2cc(S(=O)(=O)c3ccccc3)c(=O)oc12,inactive: -25.9%
16,COc1cc(C(=O)OCC(=O)N2CC(C)OC(C)C2)cc(OC)c1OC (stereo not given),inactive: -2.84%
17,O=C(OCc1nc2scc(-c3ccccc3)c2c(=O)[nH]1)c1cccc([N+](=O)[O-])c1,inactive: 25.4%
18,Cc1cc[n+](CC(=O)Nc2nc3ccccc3s2)cc1,inactive: 12.6%
19,Cc1cc(NC(=O)Cn2nc(-c3cccs3)ccc2=O)cc(C)c1Br,inactive: -6.98%
20,COc1ccc(CNC(=O)CN2C(=O)NC(C)(c3ccc(Cl)cc3)C2=O)cc1 (stereo not given),inactive: 1%
21,CCOC(=O)C1(CC2CCCCO2)CCN(Cc2nccn2-c2ccc(OC)cc2)CC1 (stereo not given),inactive: -0.177%
22,COc1cc(C(=O)COC(=O)c2ccco2)cc(OC)c1OC,inactive: -3.41%

row,Compound,growth rescue (activation)
1,Cc1ccccc1C(=O)N(Cc1ccc(N(C)C)cc1)Cc1ccco1,inactive: 13.5%
2,NC(Cc1ccccc1)c1csc(NC(=O)Nc2ccccc2Oc2ccccc2)n1 (stereo not given),inactive: 14%
3,Cc1cc(N2C(=O)C=CC2=O)c([N+](=O)[O-])cc1C,inactive: -96.6%
4,CCOc1ccccc1N(C(=O)c1ccco1)C(C(=O)NC1CCCC1)c1cccnc1 (stereo not given),inactive: 3.7%
5,CCNC(=O)C1(C)CCCN1C(=O)c1ccc(N(C)C)cc1 (stereo not given),inactive: -6.32%
6,Cc1ccc(NNC2CC(=O)N(c3cccc(Cl)c3)C2=O)cc1 (stereo not given),inactive: 25%
7,COCC(=O)Oc1c(S(=O)(=O)c2ccccc2)c(C)nn1C(C)(C)C,inactive: -16.1%
8,CCC12CN3CC(CC)(CN(C1)C31C(=O)N(C)c3ccc(C)cc31)C2=O (stereo not given),inactive: -3.48%
9,Cc1cccc(/C(N)=N/OC(=O)COc2ccc(Cl)c(C)c2)c1,inactive: 13.5%
10,CC1CC2c3cccc(C(=O)O)c3C(=O)N2c2ccc(Cl)cc21 (stereo not given),inactive: 13.6%
11,Cc1cc(C)c2nc(-c3ccccn3)cc(C(=O)Nc3ccc(S(=O)(=O)Nc4onc(C)c4C)cc3)c2c1,inactive: 6.99%
12,CC(C)=CC(=O)OCC(=O)Nc1ccc(F)cc1Cl,inactive: -2.86%
13,CCOC(=O)Nc1ccc(C)cc1NC(=O)OCC,inactive: 23.7%
14,Clc1ccc(NCc2nnc3n2CCCCC3)cc1,inactive: 19.6%
15,Cc1cccc(NC(=S)N(c2ccccc2)C(C)C)c1C,inactive: 14.5%
16,CC(C)(C)Cc1nnc(NC(=O)Cc2ccc([N+](=O)[O-])cc2)s1,inactive: 5.22%
17,C/C(=N\NC(N)=O)c1ccc(-n2ccnc2)cc1,inactive: -6.59%
18,COc1ccccc1-n1c(CNC(=O)c2cccc([N+](=O)[O-])c2C)n[nH]c1=S,inactive: 5.23%
19,COc1cccc2cc(C(=O)NCc3ccc(C)cc3)c(=O)oc12,inactive: 0.24%
20,COc1ccc(-n2c(SC3CCOC3=O)nc3ccccc3c2=O)cc1Cl (stereo not given),inactive: 19.6%
21,O=C(c1ccccc1)N(NC(=O)C(O)(c1ccccc1)c1ccccc1)c1cccc(F)c1,inactive: 24.4%
22,Nc1ccc(N2CCCCC2)c(Cl)c1,inactive: 7.02%

row,Compound,growth rescue (activation)
1,CC(C)Cn1c(N2CCN(CC(=O)Nc3ccc(Cl)cc3)CC2)nc2ccccc21,inactive: 9.69%
2,Cc1ccc2c(c1)N(CC(=O)N1CCCCC1)C(=O)CO2,inactive: 6.7%
3,Cc1ccc(C(=O)N(Cc2sccc2C)C2CCS(=O)(=O)C2)cc1 (stereo not given),inactive: 12.2%
4,COc1cc(CN2CCC(C(=O)NC(c3ccc(F)cc3)c3ccc4ccccc4n3)CC2)cc(OC)c1 (stereo not given),inactive: 6.76%
5,COc1ccc(OC)c(NC(=O)C2(C)CCN2C(=O)C2(c3ccc(Cl)cc3)CCC2)c1 (stereo not given),inactive: 24.9%
6,COc1cc(/C=C/C(=O)OCC(=O)NCCCc2ccccc2)cc(OC)c1OC,inactive: 28.4%
7,CC1CCc2sc(C(=O)N/N=C/C3CCCCC3)cc2C1 (stereo not given),inactive: 13.2%
8,CC(=O)Nc1ccc(S(=O)(=O)NNC(=O)COc2ccc(Cl)cc2Cl)cc1,inactive: -1.81%
9,Cn1c(N)c(C(=O)CSc2nnc(C3CC3)n2-c2ccccc2)c(=O)[nH]c1=O,inactive: 14.9%
10,COc1ccc(CNc2ncccn2)cc1OC,inactive: 19.6%
11,Cn1c(N/N=C/c2cc3ccccc3nc2Cl)nc2ccccc21,inactive: 0.225%
12,CCNC(=S)Nc1ccccc1-c1ccccc1,inactive: 12.1%
13,CSC(=S)N/N=C/c1ccccc1,inactive: -19.6%
14,COc1ccc2[nH]c(C(=O)N/N=C/c3ccc(OC)c(O)c3)cc2c1,inactive: 5.82%
15,COc1ccccc1-c1cnc(C(O)c2cccc(CN3CCCCC3)c2)[nH]1 (stereo not given),inactive: 5.6%
16,CCOc1ccc(-n2c(SCC(=O)Nc3cc(C)on3)nc3c(c2=O)SCC3)cc1,inactive: -11%
17,O=C(c1cccs1)c1no[n+]([O-])c1C(=O)c1cccs1,inactive: -95.5%
18,CCOC(=O)c1ccc(NC(=S)N2CCN(Cc3ccccc3)CC2)cc1,inactive: 7.98%
19,CCC1CCCCN1CC(O)Cn1c2ccccc2n2c(=O)cc(C)c(C#N)c12 (stereo not given),inactive: 13.4%
20,Cc1ccc(NC(=O)c2cc(-c3ccccc3O)n[nH]2)cc1C,inactive: 11.5%
21,O=C(CSc1nc2ccccc2s1)N1CCN(C(=O)c2ccco2)CC1,inactive: 0.147%
22,CN1CCc2c(sc(/N=C/c3cc(C(C)(C)C)ccc3O)c2C#N)C1,inactive: -1.62%
